Measured values reported in PubChem BioAssay AID1460 (National Center for Advancing Translational Sciences (NCATS), 2008).
Where “and” joins values, the source holds several entries; their conditions need not be identical. Equal entries are not always repeated. In all, about 270,000 compounds went through this assay and about 5,800 (2.1%) were called active. Inconclusive means that the source gave no clear call. Such entries were picked first, then a sample of the others. Calls come from the whole dose curve; as a rule, active = well fitted inhibition curve with a large enough effect; inconclusive = small, poorly fitted or top-dose-only effect; inactive = flat fitted curve, though single readings scatter. A potency beside an inconclusive call is a rough fit, not a confirmed value.
% is set by controls: 0 for no effect and ±100 for the full control effect; potency is the fitted concentration of half-maximal effect; tags give direction and shape of the fitted curve.
Note: nearly all actives have a fitted effect of over 55% in size.

What follows are compounds tested against Microtubule-associated protein tau (Homo sapiens) (UniProt P10636) (assay: qHTS for Inhibitors of Tau Fibril Formation, Thioflavin T Binding). Conditions: recombinant tau K18 P301L (four-repeat tau fragment), heparin-induced fibrillization, ThT fluorescence; series mostly up to 57.4 µM; activity, negative = inhibition: at the top concentration.
Chain of UniProt P10636 (P10636 whole entry, looked up, the tested form may be a part): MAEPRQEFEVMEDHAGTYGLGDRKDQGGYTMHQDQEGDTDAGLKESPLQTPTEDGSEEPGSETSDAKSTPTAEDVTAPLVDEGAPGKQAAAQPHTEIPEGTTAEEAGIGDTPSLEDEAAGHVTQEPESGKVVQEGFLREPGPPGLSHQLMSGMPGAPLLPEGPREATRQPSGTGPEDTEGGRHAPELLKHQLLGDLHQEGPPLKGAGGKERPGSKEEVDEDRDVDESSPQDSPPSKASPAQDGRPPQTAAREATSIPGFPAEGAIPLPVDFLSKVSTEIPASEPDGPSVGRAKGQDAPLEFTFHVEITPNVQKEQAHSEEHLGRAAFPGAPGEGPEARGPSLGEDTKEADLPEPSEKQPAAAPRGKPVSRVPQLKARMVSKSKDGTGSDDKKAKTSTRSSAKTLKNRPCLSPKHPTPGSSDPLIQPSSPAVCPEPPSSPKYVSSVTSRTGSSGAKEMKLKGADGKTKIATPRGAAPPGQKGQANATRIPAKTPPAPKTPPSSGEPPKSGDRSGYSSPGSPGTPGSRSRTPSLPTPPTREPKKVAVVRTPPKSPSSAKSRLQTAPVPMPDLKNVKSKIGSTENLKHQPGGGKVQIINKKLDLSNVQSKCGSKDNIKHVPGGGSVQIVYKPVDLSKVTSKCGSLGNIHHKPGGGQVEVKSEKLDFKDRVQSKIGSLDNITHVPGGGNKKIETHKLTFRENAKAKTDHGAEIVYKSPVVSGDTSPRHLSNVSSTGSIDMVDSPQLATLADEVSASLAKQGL
Procedure, shortened: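 Heparin-induced (20 uM) aggregation of recombinant human K18 P301L tau, 15 uM unlabeled with 0.24 uM labeled, pH 7 acetate buffer, 6 hr at 37 C with compound. Fibrils quantified by 30 uM ThT fluorescence after 1 hr ambient incubation.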
With `O=C(Cn1cnc([N+](=O)[O-])n1)N/N=C/c1ccc2ccccc2c1` the Potency was inconclusive: 25.1 µM [inhibitor, partial curve].
`CCN1CCCC1CNC(=S)Nc1ccc(C(C)=O)cc1` (stereo not drawn) was tested, and the “activity, negative = inhibition” value was inactive: -1.7%.
In the case of `CCCCNC(=O)c1sc(=S)n2c1[nH]c(=O)c1ccccc12`, the Potency is reported as active: 15.8 µM.
For `CCC(=O)Nc1ccc(-c2nnc(SCC(=O)N3CCCCC3)n2C)cc1`, the Potency was inconclusive: 20 µM [inhibitor, partial curve].
For `COC(=O)c1ccc(NC(=O)C(=O)NCCc2csc(-c3ccc(C(F)(F)F)cc3)n2)cc1`, the Potency was inconclusive: 8.91 µM [inhibitor, partial curve].
`CO/N=C(\C(=O)N[C@@H]1C(=O)N2C(C(=O)O)=C(COC(C)=O)CS[C@H]12)c1csc(N)n1` was tested, and the Potency was inconclusive: 20 µM [inhibitor, partial curve].
In the case of `CN(Cc1ccco1)c1nc(-c2ccccc2Cl)nc2ccccc12`, the Potency is reported as inconclusive: 35.5 µM [inhibitor, single point].
In the case of `OC(c1ccccc1)C1CN(Cc2ccccc2)CCC1(O)c1ccccc1` (stereo not drawn), the “activity, negative = inhibition” value is reported as inactive: -4.08%.
With `COc1cc(C(CCN2CCOCC2)c2c(OC)cc(OC)c3c(-c4ccccc4)cc(=O)oc23)cc(OC)c1OC` (stereo not drawn) the Potency was inconclusive: 20 µM [inhibitor, partial curve].
For `CCOc1ccc(NC(=O)c2sc3nc4c(cc3c2N)CN(Cc2ccccc2)CC4)cc1`, the Potency was inconclusive: 12.6 µM [inhibitor, partial curve].
With `CCOC(=O)C(CSCC(=O)c1ccc(Cl)cc1)NC(=O)OC(C)(C)C` (stereo not drawn) the Potency was inconclusive: 28.2 µM [inhibitor, partial curve].
In the case of `CCOc1ccc(NC(=O)N2CCC(c3ccc(C)cc3)C2)cc1` (stereo not drawn), the Potency is reported as inconclusive: 15.8 µM [inhibitor, partial curve] and inconclusive: 17.8 µM [inhibitor, partial curve, poor fit].
In the case of `CCN(CC(F)(F)C(F)F)S(=O)(=O)c1ccc(NC(=O)OC)cc1`, the “activity, negative = inhibition” value is reported as inactive: 7.06%.
In the case of `Cc1ccc2oc(-c3cccc(NC(=S)NC(=O)c4cccs4)c3)nc2c1`, the Potency is reported as inconclusive: 4.47 µM [inhibitor, full curve].
With `O=C(COc1ccc(F)cc1)Nc1ccc(C(=O)OCc2cc(=O)n3nc(C4CC4)sc3n2)cc1` the “activity, negative = inhibition” value was inactive: 0.877%.
With `COC(=O)c1cc(NCc2cccs2)ccc1N1CCOCC1` the Potency was inconclusive: 39.8 µM [inhibitor, partial curve].
`Cc1ccc2[nH]c(C)c(CCNC(=O)c3c(N)no[n+]3[O-])c2c1` was tested, and the Potency was inconclusive: 28.2 µM [inhibitor, single point].
With `O=C(Nc1nc2nccc(-c3ccccc3)n2n1)c1ccccc1` the Potency was inconclusive: 0.282 µM [inhibitor, partial curve].
